The source of these data is patent US20200291118A1 (HANX BIOPHARMACEUTICS, published 2020).

Assay [1] has as its target T1, CD47 antigen (human, UniProt Q08722 part only, limits assumed).
T1 construct: also called hCD47
Put plainly: ELISA on coated CD47. On the technique in general: An ELISA detects its analyte on a solid surface through an enzyme-linked reagent.

A further assay deals with T2, hPD-1-his antigen (human, UniProt Q15116 part only, limits assumed).
T2 construct: Coating antigen; not shown: his tag
The experiment in a line: ELISA on coated hPD-1-his. On the procedure:
An ELISA plate was coated with hPD-1-his antigen at a concentration of 0.25 μg/ml (100 μl per well) by incubation at 4° C. overnight.
The ELISA plate coated with the hPD-1-his antigen was blocked with 1% BSA (diluted in the PBS buffer) at 37° C. for 2 hours, and then washed with 1×PBST buffer containing 1% Tween-20 for three times, with gently patting to dryness.
The absorbance of solution in each well was measured on a microplate reader under a wavelength of 450 nm.

The target of assay [2] is T1, CD47 antigen. The experiment in a line: competition ELISA on coated CD47; competitor SIRPA-his tag. The procedure: After the 96-well ELISA plate was washed with the PBST buffer for five times and gently patted to dryness, HRP conjugated anti-his tag mouse monoclonal antibody as a secondary antibody in 1:750 dilution (50 μl per well) was added for incubation at 37° C. for 1 hour.
T1 sequence (Q08722 19-139 limits assumed): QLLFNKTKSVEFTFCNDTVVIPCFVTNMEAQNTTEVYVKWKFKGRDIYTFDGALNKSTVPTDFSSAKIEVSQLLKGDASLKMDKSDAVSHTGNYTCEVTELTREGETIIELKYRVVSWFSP

The target in the next assay is T3, hPD-1-hIgGFc antigen (human, UniProt Q15116 part only, limits assumed).
T3 construct: not shown: human IgG Fc
Put plainly: competition ELISA on coated hPD-1-hIgGFc; competitor PD-L1-mIgG2aFc. On the procedure:
A 96-well ELISA plate was coated with hPD-1-hIgGFc antigen at a concentration of 0.5 μg/ml (50 μl per well) by incubation at 4° C. overnight.

A word on the EC50: it is the concentration giving half of the maximal effect. Lower therefore signals an effect from little substance. Broadly, the IC50 is the midpoint of a concentration-inhibition curve.

hPD-1-hIgGFc antigen, sequence (Q15116 25-167 limits assumed): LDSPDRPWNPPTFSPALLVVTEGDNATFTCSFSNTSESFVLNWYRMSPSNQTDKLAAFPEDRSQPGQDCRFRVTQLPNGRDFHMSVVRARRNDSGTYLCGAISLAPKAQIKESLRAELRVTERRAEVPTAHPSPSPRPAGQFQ
hPD-1-his antigen, sequence (Q15116 25-167 limits assumed): as above

B1: bi-specific antibody HX009-5 (bispecific antibody, human IgG4 S228P, kappa)
heavy: EVQLVQSGGGLVQPGGSLKLSCAASGFTFSSYGMSWVRQAPGKGLDWVATISGGGRDTYYPDSVKGRFTISRDNSKNNLYLQMNSLRAEDTALYYCARQKGEAWFAYWGQGTLVTVSAASTKGPSVFPLAPCSRSTSESTAALGCLVKDYFPEPVTVSWNSGALTSGVHTFPAVLQSSGLYSLSSVVTVPSSSLGTKTYTCNVDHKPSNTKVDKRV[human IgG4 Fc with S228P (EU numbers) not given here]GGGGSGGGGSERGETGPEE[about 120 residues not given here]
light: DIVLTQSPASLAVSPGQRATITCRASESVDNYGISFMNWFQQKPGQPPKLLIYAASNKGTGVPARFSGSGSGTDFTLNINPMEEEDTAMYFCQQSKEVPWTFGGGTKLEIKRTVAAPSVFIFPPSDEQLKSGTASVVCLLNNFYPREAKVQWKVDNALQSGNSQESVTEQDSKDSTYSLSSTLTLSKADYEKHKVYACEVTHQGLSSPVTKSFNRGEC
notes: Anti-PD-1 IgG (IgG4 constant region by the summary) with SIRPA segment fused to the C-terminus of each heavy chain; expressed in 293 cells; also called PD-1/CD47 bi-specific antibody; recombinant protein
As for B1, the figures for the EC50 with CD47 antigen [1] and with hPD-1-his antigen were 0.6 nM and 0.05 nM, respectively. Also, the values for the IC50 in the assay with CD47 antigen [2] and with hPD-1-hIgGFc antigen were 21 nM and 1.5 nM, respectively.
